# Measured values taken from the supplement of paper PMC8728848.
# This is one part of the list.
# Columns and labels:
# Assay in all cases: glycan array binding signal (z-score within array); higher = stronger binding
# Conditions in all cases: glycan notation: IUPAC condensed, linker removed
# [1] = target: Gal(b1-4)GlcNAc(b1-2)[Gal(b1-4)GlcNAc(b1-6)]Man(a1-6)[GlcNAc(b1-4)][Gal(b1-4)GlcNAc(b1-2)Man(a1-3)]Man(b1-4)GlcNAc(b1-4)GlcNAc
# Outline: (§1)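 The binding signal is a Z-score computed within each array. Data were drawn from 3228 arrays in the Consortium for Functional Glycomics database, restricted to those with a known protein sequence. Scores were averaged over arrays of the same protein sequence at different concentrations or buffers, and over linkers, and negative values can be taken as non-binding.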
# [2] = target: Gal(b1-4)GlcNAc(b1-2)[Gal(b1-4)GlcNAc(b1-6)]Man(a1-6)[GlcNAc(b1-4)][Gal(b1-4)GlcNAc(b1-2)[Gal(b1-4)GlcNAc(b1-4)]Man(a1-3)]Man(b1-4)GlcNAc(b1-4)[Fuc(a1-6)]GlcNAc
# Outline: as §1
# [3] = target: Gal(b1-4)GlcNAc(b1-3)Gal(b1-3)GalNAc
# Outline: as §1
# [4] = target: Gal(b1-4)GlcNAc(b1-3)Gal(b1-3)GlcNAc
# Outline: as §1
# [5] = target: Gal(b1-4)GlcNAc(b1-3)Gal(b1-4)Glc
# Outline: as §1
# [6] = target: Gal(b1-4)GlcNAc(b1-3)Gal(b1-4)GlcNAc
# Outline: as §1
# [7] = target: Gal(b1-4)GlcNAc(b1-3)Gal(b1-4)GlcNAc(b1-2)Man(a1-3)[Gal(b1-4)GlcNAc(b1-3)Gal(b1-4)GlcNAc(b1-2)Man(a1-6)]Man(b1-4)GlcNAc(b1-4)GlcNAc
# Outline: as §1
# [8] = target: Gal(b1-4)GlcNAc(b1-3)Gal(b1-4)GlcNAc(b1-2)Man(a1-3)[Gal(b1-4)GlcNAc(b1-3)Gal(b1-4)GlcNAc(b1-2)Man(a1-6)]Man(b1-4)GlcNAc(b1-4)[Fuc(a1-6)]GlcNAc
# Outline: as §1
# [9] = target: Gal(b1-4)GlcNAc(b1-3)Gal(b1-4)GlcNAc(b1-2)[Gal(b1-4)GlcNAc(b1-3)Gal(b1-4)GlcNAc(b1-6)]Man(a1-6)[Gal(b1-4)GlcNAc(b1-3)Gal(b1-4)GlcNAc(b1-2)Man(a1-3)]Man(b1-4)GlcNAc(b1-4)GlcNAc
# Outline: as §1
# [10] = target: Gal(b1-4)GlcNAc(b1-3)Gal(b1-4)GlcNAc(b1-2)[Gal(b1-4)GlcNAc(b1-3)Gal(b1-4)GlcNAc(b1-6)]Man(a1-6)[Gal(b1-4)GlcNAc(b1-3)Gal(b1-4)GlcNAc(b1-2)Man(a1-3)]Man(b1-4)GlcNAc(b1-4)[Fuc(a1-6)]GlcNAc
# Outline: as §1
# [11] = target: Gal(b1-4)GlcNAc(b1-3)Gal(b1-4)GlcNAc(b1-3)Gal(b1-4)GlcNAc
# Outline: as §1
# [12] = target: Gal(b1-4)GlcNAc(b1-3)Gal(b1-4)GlcNAc(b1-3)Gal(b1-4)GlcNAc(b1-2)Man(a1-3)[Gal(b1-4)GlcNAc(b1-3)Gal(b1-4)GlcNAc(b1-3)Gal(b1-4)GlcNAc(b1-2)Man(a1-6)]Man(b1-4)GlcNAc(b1-4)GlcNAc
# Outline: as §1
# [13] = target: Gal(b1-4)GlcNAc(b1-3)Gal(b1-4)GlcNAc(b1-3)Gal(b1-4)GlcNAc(b1-2)Man(a1-3)[Gal(b1-4)GlcNAc(b1-3)Gal(b1-4)GlcNAc(b1-3)Gal(b1-4)GlcNAc(b1-2)Man(a1-6)]Man(b1-4)GlcNAc(b1-4)[Fuc(a1-6)]GlcNAc
# Outline: as §1
# [14] = target: Gal(b1-4)GlcNAc(b1-3)Gal(b1-4)GlcNAc(b1-3)Gal(b1-4)GlcNAc(b1-2)[Gal(b1-4)GlcNAc(b1-3)Gal(b1-4)GlcNAc(b1-3)Gal(b1-4)GlcNAc(b1-6)]Man(a1-6)[Gal(b1-4)GlcNAc(b1-3)Gal(b1-4)GlcNAc(b1-3)Gal(b1-4)GlcNAc(b1-2)Man(a1-3)]Man(b1-4)GlcNAc(b1-4)[Fuc(a1-6)]GlcNAc
# Outline: as §1
# [15] = target: Gal(b1-4)GlcNAc(b1-3)Gal(b1-4)GlcNAc(b1-3)Gal(b1-4)GlcNAc(b1-3)Gal(b1-4)GlcNAc(b1-2)Man(a1-3)[Gal(b1-4)GlcNAc(b1-3)Gal(b1-4)GlcNAc(b1-3)Gal(b1-4)GlcNAc(b1-3)Gal(b1-4)GlcNAc(b1-2)Man(a1-6)]Man(b1-4)GlcNAc(b1-4)GlcNAc
# Outline: as §1
# [16] = target: Gal(b1-4)GlcNAc(b1-3)Gal(b1-4)GlcNAc(b1-3)Gal(b1-4)GlcNAc(b1-3)Gal(b1-4)GlcNAc(b1-2)Man(a1-3)[Gal(b1-4)GlcNAc(b1-3)Gal(b1-4)GlcNAc(b1-3)Gal(b1-4)GlcNAc(b1-3)Gal(b1-4)GlcNAc(b1-2)Man(a1-6)]Man(b1-4)GlcNAc(b1-4)[Fuc(a1-6)]GlcNAc
# Outline: as §1
# [17] = target: Gal(b1-4)GlcNAc(b1-3)Gal(b1-4)GlcNAc(b1-3)Gal(b1-4)GlcNAc(b1-3)Gal(b1-4)GlcNAc(b1-2)[Gal(b1-4)GlcNAc(b1-3)Gal(b1-4)GlcNAc(b1-3)Gal(b1-4)GlcNAc(b1-3)Gal(b1-4)GlcNAc(b1-6)]Man(a1-6)[Gal(b1-4)GlcNAc(b1-3)Gal(b1-4)GlcNAc(b1-3)Gal(b1-4)GlcNAc(b1-3)Gal(b1-4)GlcNAc(b1-2)Man(a1-3)]Man(b1-4)GlcNAc(b1-4)[Fuc(a1-6)]GlcNAc
# Outline: as §1
# [18] = target: Gal(b1-4)GlcNAc(b1-3)Gal(b1-4)GlcNAc(b1-3)Gal(b1-4)GlcNAc(b1-3)Gal(b1-4)GlcNAc(b1-3)Gal(b1-4)GlcNAc(b1-2)Man(a1-3)[Gal(b1-4)GlcNAc(b1-3)Gal(b1-4)GlcNAc(b1-3)Gal(b1-4)GlcNAc(b1-3)Gal(b1-4)GlcNAc(b1-3)Gal(b1-4)GlcNAc(b1-2)Man(a1-6)]Man(b1-4)GlcNAc(b1-4)GlcNAc
# Outline: as §1
# [19] = target: Gal(b1-4)GlcNAc(b1-3)Gal(b1-4)GlcNAc(b1-3)Gal(b1-4)GlcNAc(b1-3)Gal(b1-4)GlcNAc(b1-3)Gal(b1-4)GlcNAc(b1-2)Man(a1-3)[Gal(b1-4)GlcNAc(b1-3)Gal(b1-4)GlcNAc(b1-3)Gal(b1-4)GlcNAc(b1-3)Gal(b1-4)GlcNAc(b1-3)Gal(b1-4)GlcNAc(b1-2)Man(a1-6)]Man(b1-4)GlcNAc(b1-4)[Fuc(a1-6)]GlcNAc
# Outline: as §1
# [20] = target: Gal(b1-4)GlcNAc(b1-3)Gal(b1-4)GlcNAc(b1-3)Gal(b1-4)GlcNAc(b1-3)Gal(b1-4)GlcNAc(b1-3)Gal(b1-4)GlcNAc(b1-2)[Gal(b1-4)GlcNAc(b1-3)Gal(b1-4)GlcNAc(b1-3)Gal(b1-4)GlcNAc(b1-3)Gal(b1-4)GlcNAc(b1-3)Gal(b1-4)GlcNAc(b1-6)]Man(a1-6)[Gal(b1-4)GlcNAc(b1-3)Gal(b1-4)GlcNAc(b1-3)Gal(b1-4)GlcNAc(b1-3)Gal(b1-4)GlcNAc(b1-3)Gal(b1-4)GlcNAc(b1-2)Man(a1-3)]Man(b1-4)GlcNAc(b1-4)[Fuc(a1-6)]GlcNAc
# Outline: as §1
# [21] = target: Gal(b1-4)GlcNAc(b1-3)Gal(b1-4)GlcNAc(b1-3)Gal(b1-4)GlcNAc(b1-3)Gal(b1-4)GlcNAc(b1-3)Gal(b1-4)GlcNAc(b1-3)Gal(b1-4)GlcNAc(b1-2)Man(a1-3)[Gal(b1-4)GlcNAc(b1-3)Gal(b1-4)GlcNAc(b1-3)Gal(b1-4)GlcNAc(b1-3)Gal(b1-4)GlcNAc(b1-3)Gal(b1-4)GlcNAc(b1-3)Gal(b1-4)GlcNAc(b1-2)Man(a1-6)]Man(b1-4)GlcNAc(b1-4)GlcNAc
# Outline: as §1
# [22] = target: Gal(b1-4)GlcNAc(b1-3)Gal(b1-4)GlcNAc(b1-3)GalNAc
# Outline: as §1
# [23] = target: Gal(b1-4)GlcNAc(b1-3)Gal(b1-4)GlcNAc(b1-3)[Gal(b1-4)GlcNAc(b1-3)Gal(b1-4)GlcNAc(b1-6)]GalNAc
# Outline: as §1
# [24] = target: Gal(b1-4)GlcNAc(b1-3)Gal(b1-4)GlcNAc(b1-6)[Gal(b1-3)]GalNAc
# Outline: as §1
# [25] = target: Gal(b1-4)GlcNAc(b1-3)Gal(b1-4)[Fuc(a1-3)]GlcNAc(b1-3)Gal(b1-4)[Fuc(a1-3)]GlcNAc
# Outline: as §1
# [26] = target: Gal(b1-4)GlcNAc(b1-3)GalNAc
# Outline: as §1
# [27] = target: Gal(b1-4)GlcNAc(b1-3)[Fuc(a1-3)GlcNAc(b1-6)]Gal(b1-4)Glc
# Outline: as §1
# [28] = target: Gal(b1-4)GlcNAc(b1-3)[Gal(b1-4)GlcNAc(b1-6)]Gal(b1-4)GlcNAc
# Outline: as §1
# [29] = target: Gal(b1-4)GlcNAc(b1-3)[GlcNAc(b1-6)]Gal(b1-4)GlcNAc
# Outline: as §1
# [30] = target: Gal(b1-4)GlcNAc(b1-6)Gal(b1-4)GlcNAc
# Outline: as §1
# [31] = target: Gal(b1-4)GlcNAc(b1-6)GalNAc
# Outline: as §1
# [32] = target: Gal(b1-4)GlcNAc(b1-6)[Gal(b1-3)]GalNAc
# Outline: as §1
# [33] = target: Gal(b1-4)GlcNAc(b1-6)[Gal(b1-4)GlcNAc(b1-3)]GalNAc
# Outline: as §1
# Gal(b1-4)GlcNAc6P = target: Gal(b1-4)GlcNAc6P
# Outline: as §1
# Gal(b1-6)Gal = target: Gal(b1-6)Gal
# Outline: as §1
# Gal3S(b1-3)GalNAc = target: Gal3S(b1-3)GalNAc
# Outline: as §1
# Gal3S(b1-3)GlcNAc = target: Gal3S(b1-3)GlcNAc
# Outline: as §1
# [34] = target: Gal3S(b1-3)[Fuc(a1-4)]GlcNAc
# Outline: as §1
binder,measurement,setting,value
ClecSol-Fc (Cryptosporidium parvum) (protein) CPEGWISNGEKTRCFKLVTFDRPRTFSHGFKACNDLGGTEVETRRRNGSKETNEYPVTLASVYKLSDEEAIRRTLVEQGDIHKTANGCFVGLRKYAFFRYPPGWYWIDSGSPVSVRDSEINWTSSYNASWLLRFKFPFEKCGFFDIGGLGRRPCWLIDSELSCAVCGTVAYDSGGLNPNKYSELIKQTDEIISKEPKLDLPGYNNLNCTDAWENNLSVGLCQNVSNILDSAWSSYQSSLNFPSINFNWKEDSTNEGGDQVYHNSYLDLPRYKQKKTFYWDQDPGTIPALSDEMKLIGLSAQPTYHPLDRSSSGSFESDSTESGRANEERNDTLEEMIYKQSSDSIEDILVPVTKPIFSDYSSIGRNSGVEEVYSSNVSTISSKGVVFPNTTTSSDNDFTKNNPANSSKHTSTSTTTNTTTTTTRTTTTTTTTTTTTTTTTTTTTETTTTKKSTTATKNTTTT,glycan array binding signal (z-score),[1],0.117
same,glycan array binding signal (z-score),[2],0.02
same,glycan array binding signal (z-score),[3],-0.152
same,glycan array binding signal (z-score),[4],-0.125
same,glycan array binding signal (z-score),[5],-0.202
same,glycan array binding signal (z-score),[6],-0.173
same,glycan array binding signal (z-score),[7],0.037
same,glycan array binding signal (z-score),[8],0.065
same,glycan array binding signal (z-score),[9],0.543
same,glycan array binding signal (z-score),[10],0.18
same,glycan array binding signal (z-score),[11],-0.245
same,glycan array binding signal (z-score),[12],-0.069
same,glycan array binding signal (z-score),[13],-0.178
same,glycan array binding signal (z-score),[14],-0.021
same,glycan array binding signal (z-score),[15],-0.173
same,glycan array binding signal (z-score),[16],0.483
same,glycan array binding signal (z-score),[17],-0.029
same,glycan array binding signal (z-score),[18],0.299
same,glycan array binding signal (z-score),[19],0.093
same,glycan array binding signal (z-score),[20],-0.031
same,glycan array binding signal (z-score),[21],-0.15
same,glycan array binding signal (z-score),[22],0.234
same,glycan array binding signal (z-score),[23],-0.114
same,glycan array binding signal (z-score),[24],-0.168
same,glycan array binding signal (z-score),[25],-0.22
same,glycan array binding signal (z-score),[26],0.011
same,glycan array binding signal (z-score),[27],-0.171
same,glycan array binding signal (z-score),[28],-0.197
same,glycan array binding signal (z-score),[29],-0.01
same,glycan array binding signal (z-score),[30],-0.095
same,glycan array binding signal (z-score),[31],-0.05
same,glycan array binding signal (z-score),[32],0.316
same,glycan array binding signal (z-score),[33],-0.187
same,glycan array binding signal (z-score),Gal(b1-4)GlcNAc6P,0.194
same,glycan array binding signal (z-score),Gal(b1-6)Gal,-0.075
same,glycan array binding signal (z-score),Gal3S(b1-3)GalNAc,-0.101
same,glycan array binding signal (z-score),Gal3S(b1-3)GlcNAc,-0.143
same,glycan array binding signal (z-score),[34],0.035
